The list shows a part of the results.
test system: PfSIP2 AP2 domain 1 (GST-tagged); test: gcPBM binding intensity (ln(normalized median fluorescence intensity)); higher = stronger DNA binding
Method in brief: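 After 1 h on an Agilent 4 × 180k array of primer-extended double-stranded 36-bp intergenic genomic probes and negative controls, bound GST-tagged P. falciparum DNA-binding domains were detected with Alexa488 anti-GST antibody and scanned at 488 nm. The domains had been expressed in E. coli, and binding took place in 1× PBS with 1% milk, 0.2 mg/ml BSA, 0.5% salmon testes DNA and 0.03% Triton X-100. Binding intensity is the highest Masliner-normalised natural-log median intensity across replicate spots of either probe orientation.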

Sequence | gcPBM binding intensity (ln)
GAAATACCGGAAAGCAAACACACATTTTAAAACCAT [CACACA_site3861] | 6.98
ATATTTTTTGGAAAGTGTACAATATTATATATTAAA [XGTACX_site2163] | 7.02
ATATATGTAACATATTGTACATATATGTATGTATGT [XGTACX_site3281] | 7.64
ATGATAAAATTATGTAGTACATATTTGAATGTAAAT [XGTACX_site688] | 7
TAATTTCTTATGTAGTGTACAAATAATATATGATAT [XGTACX_site597] | 7.22
AATATCTGTATATCCACACACATATATATATATATA [CACACA_site4987] | 9.45
TAATCGGTAATATTAACACACACATTTATATATATT [CACACA_site8274] | 7.08
GTATTAATAAAAATACGTACTTATTATTTATAATAA [XGTACX_site7672] | 6.98
ATTATTCATATAACACGTACAAAACGAAAAACAAAT [XGTACX_site3873] | 7.65
AATATCACCACATTGTTACTATAATATATAAAAAAG [XGTACX_negctrl_site384] | 7.1
AAAAGGAGAAATATTGCACACGTGCAAAATGGTATG [CACACA_site4300] | 9.83
ATTCATAAAAGTTGTACATGCAATTTTTTTTTTTTT [TGCATGCA_site270] | 7.01
ATTTTGTTATGAAACACACACATATATATATATATA [CACACA_site3650] | 9.65
TATATGCCTATAAGAAGTACTGTGTAATGTAATATA [XGTACX_site8089] | 6.87
TAAACATAAATATGCACACATATACATATATTCATA [CACACA_site2667] | 7.34
AAGAAAAATATATTTATATATATATATATTAAATAT [TGCATGCA_negctrl_site500] | 7.16
AATTTTATACGATAAACATGCAAATAAATAAATAAA [TGCATGCA_site227] | 7.1
AAAGAAAAAAAAAACACACACACACCCATTCAATAT [CACACA_site38] | 6.95
ACAGCCAATACGGAAACACACAAGTTATTTTATCAT [CACACA_site5507] | 7.03
TATAATAATATTTATTGTACAATTAGTTTAATTCAT [XGTACX_site272] | 7.08
TTTATTATATAAACATGTACACAATTTGGTATATTC [XGTACX_site3112] | 7.24
AAATTATGCATCGAGGTGCGTCTTAAAATATAGTGG | 10.3
ATATAAATTCAAATTACACACATTTATTTTTTTTAC [CACACA_site53] | 7.01

Sequence | gcPBM binding intensity (ln)
CTACATAATAAAAAAAGTACATTCTAATAAATTGAC [XGTACX_site4504] | 7.19
ACTAATAATTTGTCGGTGCATAAAATTATTTTTATT [GTGCAC_site9840] | 10.7
ATATTATATATATAGGTGCGAGTATTTTATAAATAT [GTGCAC_site9889] | 9.06
TAAGTATACACATACACACACACACTAATAAAAAAA [CACACA_site8035] | 7.15
TATACACCCGGACACACACACATATATATATATATA [CACACA_site5030] | 9.12
ATATATATATTATATGCACACGTTAAAATTTCATAT [CACACA_site4552] | 8.3
TAAAAATATTAATAAACACACAATGAGATATTGAAT [CACACA_site3153] | 6.82
AAATATAAAATTTATTGTACATTATATATAATATAT [XGTACX_site1416] | 6.94
TGATATATTTATATTACACACTTAAACGAAAAAAAA [CACACA_site3021] | 6.96
TATTATAATATTTATACACACATAATTTTGATAAAT [CACACA_site583] | 6.95
CATTCTTGTTTAAAAAGTACATAAACATATATATAT [XGTACX_site1751] | 8.64
AAAAAAAATAAAGAGAAAAAAAAAAGAAAATTATAT [GTGCAC_negctrl_site550] | 6.7
TAAATTAATATGTATCGTACAATATATAAAACGATG [XGTACX_site2818] | 7.01
ACATATTATATAACTCGTACTCGTAAAATATGTTGT [XGTACX_site2240] | 6.99
TTCTTCTGTTTTATTACACACCATTTTGCGTATACA [CACACA_site2070] | 7.6
GTCATAAATGTACGCACACATACATAAACATATACA [CACACA_site650] | 7.61
GTTCTTTTATATATTTGTACATATTTATATATATTG [XGTACX_site4078] | 7.51
ACATAGCAATGTTTCACACACAAGAAAAAATACAAT [CACACA_site2379] | 6.92
TTTGAACTCTTAAGTGGTACAAATTTGTATTTTCTC [XGTACX_site2322] | 6.92
GAAATGTGGTAATATACACACACGCATATATTTATA [CACACA_site6285] | 6.95
AATGGAATATATATTTGTACATAAATATTATAATAA [XGTACX_site8524] | 6.94
TATAAATAAAAATATACACACTGTATTATTGTAATA [CACACA_site7721] | 6.72
TTTACTCCTACAACATGTACATAAAATAAATTTTTT [XGTACX_site5010] | 7.51

Sequence | gcPBM binding intensity (ln)
ACATGTTAACTAAATGTACACACCTATGTTGATGTA [CACACA_site1821] | 6.97
TTATTTACAACTTTTTTTTTTTTATTTTATTTTATT [CACACA_negctrl_site341] | 6.58
AATATAAGTAGTACAGTGCATATAATAATTAGAAGA [GTGCAC_site9485] | 8.75
GATTAAACACAAAGAAGTACGGACATAAAAAAAAAA [XGTACX_site3686] | 7.18
TTGATTTATATTTAATGTACATTTTTACAGAAAATT [XGTACX_site2747] | 6.93
CCATAAAAAGGATACACACACACACGCACATATATA [CACACA_site6550] | 7.28
TATTATTATTATTACACACACAATTATATTTACCCC [CACACA_site503] | 7.46
TCGTGGTTTTAATAAGTGCGCAATTTAAATATTTTT | 8.67
GTATATATATATATATATATATATTTTTATTTATTT [CACACA_negctrl_site589] | 7.42
ATATAAATAATGTTGACACACACAATAATCTTATTA [CACACA_site9197] | 7.07
AAAATATGGATTCATGATATTAAATTTAATTTAATG [XGTACX_negctrl_site214] | 6.71
GTTATACTCATATATACACACATATGTAAATATATA [CACACA_site5764] | 7.17
ATTATATTAGGTAATCAGTTAAATGTTTCCTTTTTA [CACACA_negctrl_site1229] | 6.6
ATACGAAAAAAAAAAAGTACACAAAAATATCTACAT [XGTACX_site2051] | 7.01
TTTATATAATTTTGTGGTACTTATGTGTGTATATTA [XGTACX_site706] | 7.08
CGCGCACCCAGACACACACACACACCGATATATATA [CACACA_site8687] | 10.6
AAAAAAAAAAAAAGTACACACTTATAAAATATTATG [CACACA_site4639] | 7.22
TAAATTATCTTTTTATGTACTTATTTTTATTATTTT [XGTACX_site3158] | 7.06
TATTTTCAACATATTTGTACATATTTTATATTTTAA [XGTACX_site101] | 7.08
TGCATACTAGCCAATTGTACATAATTTTATTTTAAA [XGTACX_site513] | 7.09
ATTATGATTTTATAGAACTGAACATTTACATTAAAT [GTGCAC_negctrl_site192] | 6.86
AAAATAAATCTGAATGGGGTATAATATATCTTTGTT [CACACA_negctrl_site744] | 6.82
AAAAGGAACAGACACACACACATATATATATATATA [CACACA_site3587] | 9.9

Sequence | gcPBM binding intensity (ln)
ATTTATTATATATACACACATACATATATATATATA [CACACA_site2159] | 9.14
ATAACAAAATAAAACACACACACAAATGTACTTATA [CACACA_site8768] | 6.94
TGCTTTTATTTCTTCACACATATGTAAAAAAAAGAA [CACACA_site5906] | 7.72
AAAAAATTCTGGTACTGTACACATTTTTTTAAATTT [XGTACX_site6904] | 7.18
ATATGAGAGAATAAAACACACAAAAAAAAAAAAAAA [CACACA_site2865] | 6.95
TAATAATCAAGTTAACGTACAAAATCATCTATAGAA [XGTACX_site5921] | 6.92
GTAGCCTTTCTTTATAAAGGCAAACAAACAAAAAAT [CACACA_negctrl_site1491] | 7.3
AAAAATTAAAAGAAAATACACACCTGTGGGTGCTTA [CACACA_site1988] | 7.66
TTATATAGGCAGATGGTGCATCTATTTATAAGCAAC | 10.7
TGTATGTATTTTCAATGTACATAAAAAAAAAAAAAA [XGTACX_site4397] | 7.15
TATTTTTTTTGTTAGGTGCATTTACATTTATTTTTA | 9.93
AAAAAAAAAAGTTCTACACACACAAAAAAATATTTT [CACACA_site8725] | 6.82
TATAATATAATTAAAAGTACTTAAAAAAGAATGAAA [XGTACX_site1157] | 7.43
TGTTTATATAATATTCTACACACCAACAACAAACAT [CACACA_site8087] | 7.45
TTTTTAAAACATATCACACATATATATATATATATA [CACACA_site5991] | 9.59
TATTTTTATAAAAATCGTACAAGTGATCCAATTTTT [XGTACX_site4402] | 6.87
CCGTATTCAAAAAGGAGTACACAATTATATGTTATA [XGTACX_site641] | 6.82
AAAAAAAAAAAAAAATGTACATATATATAAATATAT [XGTACX_site6768] | 7.25
ATATATATATATATATGTACATATTTTTATTTATAC [XGTACX_site2858] | 9.51
TATGTAATGTTTACAACACACAAATTATAAATACAA [CACACA_site1771] | 6.95
